Measured values as given in the supplement of paper PMC6531468.
The list shows a part of the results. Values come from read counts of a selection and are noisy. Scores sum up all selected molecules that hold the word; the word was not tested alone.

Columns and labels:
Test in all cases: 6-mer SELEX enrichment z-score vs GST control; IMP3 is the RNA-binding protein IGF2BP3; higher = more enriched by binding
IMP3 KH1-4 = conditions: construct: KH1-4 (164-579); SELEX round: R4
Procedure: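 SELEX-seq with GST-tagged IMP3 KH1-4 (Pro164-Lys579) and an N40 RNA pool, round 4. 6-mer z-score of sequence-tag enrichment normalised to the corresponding GST SELEX round; RNA k-mers written as DNA (T for U).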

IMP3 RRM1-2 = conditions: construct: RRM1-2 (1-163); SELEX round: R2
Procedure: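 SELEX-seq with GST-tagged IMP3 RRM1-2 (Met1-Asn163) and an N40 RNA pool, round 2. 6-mer enrichment z-score normalised to GST SELEX. RNA written as DNA (T = U).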

IMP3 full-length = IMP3 full-length (UniProt O00425); conditions: construct: FL IMP3 (1-579); SELEX round: R4
Procedure: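 SELEX-seq with GST-tagged full-length IMP3 and an N40 RNA pool, round 4. Each 6-mer is scored as an enrichment z-score of sequence tags containing it, normalised to the matching GST SELEX round. RNA written as DNA (T = U).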

IMP3 KH3-4 = conditions: construct: KH3-4 (377-579); SELEX round: R4
Procedure: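 SELEX-seq with GST-tagged IMP3 KH3-4 (Pro377-Lys579) and an N40 RNA pool, round 4. 6-mer z-score of sequence-tag enrichment normalised to the corresponding GST SELEX round; RNA k-mers written as DNA (T for U).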

Sequence of IMP3 RRM1-2 (chain, as listed by the source): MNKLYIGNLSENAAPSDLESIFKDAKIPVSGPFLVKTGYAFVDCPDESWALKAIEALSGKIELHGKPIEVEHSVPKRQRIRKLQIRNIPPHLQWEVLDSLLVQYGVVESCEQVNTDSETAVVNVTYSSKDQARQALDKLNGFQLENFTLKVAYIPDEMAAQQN
Sequence of UniProt O00425 (O00425 whole entry): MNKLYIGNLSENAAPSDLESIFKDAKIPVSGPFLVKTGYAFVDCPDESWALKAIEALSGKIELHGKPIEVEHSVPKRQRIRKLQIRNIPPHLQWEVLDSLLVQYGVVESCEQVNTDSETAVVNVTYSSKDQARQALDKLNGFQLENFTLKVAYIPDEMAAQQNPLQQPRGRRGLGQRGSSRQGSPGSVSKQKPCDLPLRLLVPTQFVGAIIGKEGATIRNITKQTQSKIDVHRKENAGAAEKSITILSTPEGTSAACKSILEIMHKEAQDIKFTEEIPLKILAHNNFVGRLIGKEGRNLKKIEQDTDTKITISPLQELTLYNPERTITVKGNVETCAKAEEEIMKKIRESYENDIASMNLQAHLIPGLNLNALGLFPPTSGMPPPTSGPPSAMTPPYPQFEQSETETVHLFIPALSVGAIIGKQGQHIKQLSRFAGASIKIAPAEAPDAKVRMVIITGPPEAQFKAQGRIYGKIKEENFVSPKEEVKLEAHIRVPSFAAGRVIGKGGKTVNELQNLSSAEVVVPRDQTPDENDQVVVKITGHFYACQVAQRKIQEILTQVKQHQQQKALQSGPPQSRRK
Sequence of IMP3 KH1-4 (chain, as listed by the source): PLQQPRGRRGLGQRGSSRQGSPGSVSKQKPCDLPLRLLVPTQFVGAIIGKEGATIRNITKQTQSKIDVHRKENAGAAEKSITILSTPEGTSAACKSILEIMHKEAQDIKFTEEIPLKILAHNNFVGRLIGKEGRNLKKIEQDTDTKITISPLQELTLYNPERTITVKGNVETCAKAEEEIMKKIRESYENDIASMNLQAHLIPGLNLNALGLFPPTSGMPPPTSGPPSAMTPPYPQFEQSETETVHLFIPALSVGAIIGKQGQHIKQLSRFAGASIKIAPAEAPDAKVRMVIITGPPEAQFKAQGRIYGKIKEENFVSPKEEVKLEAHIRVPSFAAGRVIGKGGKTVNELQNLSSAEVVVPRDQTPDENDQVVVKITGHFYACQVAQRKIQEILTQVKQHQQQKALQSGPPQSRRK
Sequence of IMP3 KH3-4 (chain, as listed by the source): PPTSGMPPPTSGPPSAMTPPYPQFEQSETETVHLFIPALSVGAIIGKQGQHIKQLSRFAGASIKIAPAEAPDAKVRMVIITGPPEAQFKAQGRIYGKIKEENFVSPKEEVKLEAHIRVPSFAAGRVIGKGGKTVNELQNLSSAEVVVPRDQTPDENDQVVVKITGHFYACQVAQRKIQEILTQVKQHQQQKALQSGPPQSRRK

Sequence | 6-mer SELEX enrichment z-score (IMP3 KH1-4) | 6-mer SELEX enrichment z-score (IMP3 RRM1-2) | 6-mer SELEX enrichment z-score (IMP3 full-length) | 6-mer SELEX enrichment z-score (IMP3 KH3-4)
TTGTCG | -0.013 | 0.419 | 0.287 | 0.105
TTTGTA | 0.31 | 0.229 | -0.083 | 0.52
CAAGAC | -0.954 | 0.019 | -0.693 | -1.13
AACAGT | 0.444 | 0.262 | 0.827 | 0.288
AGGCAA | 1.05 | 0.432 | 1.17 | 1.36
TCGGAC | -0.046 | 0.121 | 0.379 | -0.066
TCCGAG | -1.77 | -0.278 | -0.431 | -1.52
CACCAC | 0.668 | 1.82 | 0.859 | -0.732
CAAGCA | -0.125 | 1.73 | 0.874 | -0.334
CATGAG | -0.722 | 0.306 | 0.072 | -0.663
TCCCTG | -0.246 | -0.375 | -0.573 | -0.704
ACCATT | 1.07 | 1.11 | 0.698 | 0.66
TGATCC | -0.012 | -0.417 | -0.453 | -0.372
AAGGTC | -0.022 | -0.19 | 0.122 | 0.084
CTATTA | 1.14 | 0.175 | 0.055 | 1.49
TATAAA | 1.32 | -0.829 | -0.277 | 2.55
GGATCC | -0.461 | -0.239 | -0.241 | -0.67
AACTCA | -0.723 | 1.07 | -0.194 | -0.878
TAGGAC | 0.175 | 0.642 | -0.022 | 0.079
AACTCC | -0.684 | -0.714 | -1.12 | -1.23
CTGCTA | 0.283 | 0.036 | -0.066 | 0.194
CTCCTG | -0.661 | -0.113 | -0.629 | -0.796
GCAGGG | 0.959 | 0.325 | 0.972 | 0.761
CACACT | 1.76 | 2.24 | 1.55 | 0.737
